Reference: the supplement of paper PMC8728848
The list shows a part of the results.

Experiments:
Assay in all cases: glycan array binding signal (z-score within array); higher = stronger binding
Details in all cases: glycan notation: IUPAC condensed, linker removed
Fuc(a1-2)Gal = biological target: Fuc(a1-2)Gal
Summary of the method: (§1)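 The Consortium for Functional Glycomics database supplied 3228 glycan arrays, of which those lacking an available protein sequence were dropped. The binding signal, a within-array Z-score, was averaged across arrays of the same protein sequence and across linkers. Negative scores can be read as non-binding.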

Fuc(a1-2)Gal(b1-3)GalNAc = biological target: Fuc(a1-2)Gal(b1-3)GalNAc
Summary of the method: as §1

[1] = biological target: Fuc(a1-2)Gal(b1-3)GalNAc(a1-3)[Fuc(a1-2)]Gal(b1-4)Glc
Summary of the method: as §1

[2] = biological target: Fuc(a1-2)Gal(b1-3)GalNAc(a1-3)[Fuc(a1-2)]Gal(b1-4)GlcNAc
Summary of the method: as §1

[3] = biological target: Fuc(a1-2)Gal(b1-3)GalNAc(b1-3)Gal
Summary of the method: as §1

[4] = biological target: Fuc(a1-2)Gal(b1-3)GalNAc(b1-3)Gal(a1-4)Gal(b1-4)Glc
Summary of the method: as §1

[5] = biological target: Fuc(a1-2)Gal(b1-3)GalNAc(b1-4)[Neu5Ac(a2-3)]Gal(b1-4)Glc
Summary of the method: as §1

Fuc(a1-2)Gal(b1-3)GlcNAc = biological target: Fuc(a1-2)Gal(b1-3)GlcNAc
Summary of the method: as §1

[6] = biological target: Fuc(a1-2)Gal(b1-3)GlcNAc(b1-2)Man(a1-3)[Fuc(a1-2)Gal(b1-3)GlcNAc(b1-2)Man(a1-6)]Man(b1-4)GlcNAc(b1-4)GlcNAc
Summary of the method: as §1

[7] = biological target: Fuc(a1-2)Gal(b1-3)GlcNAc(b1-2)Man(a1-3)[Fuc(a1-2)Gal(b1-3)GlcNAc(b1-2)Man(a1-6)]Man(b1-4)GlcNAc(b1-4)[Fuc(a1-6)]GlcNAc
Summary of the method: as §1

[8] = biological target: Fuc(a1-2)Gal(b1-3)GlcNAc(b1-3)Gal(b1-4)Glc
Summary of the method: as §1

[9] = biological target: Fuc(a1-2)Gal(b1-3)GlcNAc(b1-3)GalNAc
Summary of the method: as §1

[10] = biological target: Fuc(a1-2)Gal(b1-3)GlcNAc(b1-3)[Fuc(a1-2)Gal(b1-3)GlcNAc(b1-6)]GalNAc
Summary of the method: as §1

[11] = biological target: Fuc(a1-2)Gal(b1-3)GlcNAc(b1-3)[Gal(b1-4)GlcNAc(b1-6)]Gal(b1-4)Glc
Summary of the method: as §1

[12] = biological target: Fuc(a1-2)Gal(b1-3)GlcNAc(b1-3)[Neu5Ac(a2-6)Gal(b1-4)GlcNAc(b1-6)]Gal(b1-4)Glc
Summary of the method: as §1

[13] = biological target: Fuc(a1-2)Gal(b1-3)GlcNAc6S
Summary of the method: as §1

[14] = biological target: Fuc(a1-2)Gal(b1-3)[Fuc(a1-4)]GlcNAc
Summary of the method: as §1

[15] = biological target: Fuc(a1-2)Gal(b1-3)[Fuc(a1-4)]GlcNAc(b1-2)Man(a1-3)[Fuc(a1-2)Gal(b1-3)[Fuc(a1-4)]GlcNAc(b1-2)Man(a1-3)]Man(b1-4)GlcNAc(b1-4)GlcNAc
Summary of the method: as §1

[16] = biological target: Fuc(a1-2)Gal(b1-3)[Fuc(a1-4)]GlcNAc(b1-2)Man(a1-3)[Fuc(a1-2)Gal(b1-3)[Fuc(a1-4)]GlcNAc(b1-2)Man(a1-6)]Man(b1-4)GlcNAc(b1-4)[Fuc(a1-6)]GlcNAc(b1-4)[Fuc(a1-6)]GlcNAc
Summary of the method: as §1

[17] = biological target: Fuc(a1-2)Gal(b1-3)[Fuc(a1-4)]GlcNAc(b1-3)[Fuc(a1-3)[Gal(b1-4)]GlcNAc(b1-6)]Gal(b1-4)Glc
Summary of the method: as §1

[18] = biological target: Fuc(a1-2)Gal(b1-3)[Fuc(a1-4)]GlcNAc(b1-3)[Gal(b1-4)GlcNAc(b1-6)]Gal(b1-4)Glc
Summary of the method: as §1

Fuc(a1-2)Gal(b1-4)Glc = biological target: Fuc(a1-2)Gal(b1-4)Glc
Summary of the method: as §1

Fuc(a1-2)Gal(b1-4)Glc6S = biological target: Fuc(a1-2)Gal(b1-4)Glc6S
Summary of the method: as §1

Fuc(a1-2)Gal(b1-4)GlcNAc = biological target: Fuc(a1-2)Gal(b1-4)GlcNAc
Summary of the method: as §1

[19] = biological target: Fuc(a1-2)Gal(b1-4)GlcNAc(b1-2)Man
Summary of the method: as §1

[20] = biological target: Fuc(a1-2)Gal(b1-4)GlcNAc(b1-2)Man(a1-3)[Fuc(a1-2)Gal(b1-4)GlcNAc(b1-2)Man(a1-6)]Man(b1-4)GlcNAc(b1-4)GlcNAc
Summary of the method: as §1

[21] = biological target: Fuc(a1-2)Gal(b1-4)GlcNAc(b1-2)Man(a1-3)[Fuc(a1-2)Gal(b1-4)GlcNAc(b1-2)Man(a1-6)]Man(b1-4)GlcNAc(b1-4)[Fuc(a1-6)]GlcNAc
Summary of the method: as §1

[22] = biological target: Fuc(a1-2)Gal(b1-4)GlcNAc(b1-2)[Fuc(a1-2)Gal(b1-4)GlcNAc(b1-4)]Man(a1-3)[Fuc(a1-2)Gal(b1-4)GlcNAc(b1-2)Man(a1-6)]Man(b1-4)GlcNAc(b1-4)GlcNAc
Summary of the method: as §1

[23] = biological target: Fuc(a1-2)Gal(b1-4)GlcNAc(b1-3)Gal(b1-4)GlcNAc
Summary of the method: as §1

[24] = biological target: Fuc(a1-2)Gal(b1-4)GlcNAc(b1-3)Gal(b1-4)GlcNAc(b1-2)Man(a1-3)[Fuc(a1-2)Gal(b1-4)GlcNAc(b1-3)Gal(b1-4)GlcNAc(b1-2)Man(a1-6)]Man(b1-4)GlcNAc(b1-4)GlcNAc
Summary of the method: as §1

[25] = biological target: Fuc(a1-2)Gal(b1-4)GlcNAc(b1-3)Gal(b1-4)GlcNAc(b1-3)Gal(b1-4)GlcNAc
Summary of the method: as §1

[26] = biological target: Fuc(a1-2)Gal(b1-4)GlcNAc(b1-3)GalNAc
Summary of the method: as §1

[27] = biological target: Fuc(a1-2)Gal(b1-4)GlcNAc(b1-3)[Fuc(a1-2)Gal(b1-4)GlcNAc(b1-6)]GalNAc
Summary of the method: as §1

[28] = biological target: Fuc(a1-2)Gal(b1-4)GlcNAc(b1-3)[Fuc(a1-3)[Gal(b1-4)]GlcNAc(b1-6)]Gal(b1-4)Glc
Summary of the method: as §1

[29] = biological target: Fuc(a1-2)Gal(b1-4)GlcNAc(b1-6)GalNAc
Summary of the method: as §1

[30] = biological target: Fuc(a1-2)Gal(b1-4)GlcNAc6S
Summary of the method: as §1

[31] = biological target: Fuc(a1-2)Gal(b1-4)[Fuc(a1-3)]GlcNAc
Summary of the method: as §1

B1: Na-CTL-1 (Necator americanus) (protein)
chain: MQRSFLLLLVVLAGAWAVNTTIPLKLMGGFTPMKYQCVGRVSDIWADVLFLIESSDMITKSGFRQVIAFITATTKKMTIGQDEKQTRVGFITYGEEAKLIYDLDHWRSTEKLSDLVQKIPYVKSSGTNIAAAIALANKVFNSPTHRPNVPKVMVIVANGLKKGSQNPIPVATAFKDFGGIIITIEYTQYDNIQVPILKKIASEGYNIRSNDEDFSVRTLTNMLLQANCFCPDHYVPFRVNNPEFGCFVTAKIPSMWRDAAEMCRAVEEGKLVKVENEEKAAFIMKLVGPKKEAWIGLRYYGNKFQWTDGTKLNADDFNLWPEDIKELNGPHCVSMYQDQKDKKYYWRAGKCLEDMRYVCEVQPCSASNYCSEPVFMYRQKHRALLPAPPPPPN
glycan array binding signal (z-score) (Fuc(a1-2)Gal): 0.439 | glycan array binding signal (z-score) (Fuc(a1-2)Gal(b1-3)GalNAc): -0.381 | glycan array binding signal (z-score) [1]: -0.342 | glycan array binding signal (z-score) [2]: -0.486 | glycan array binding signal (z-score) [3]: -0.258 | glycan array binding signal (z-score) [4]: -0.262 | glycan array binding signal (z-score) [5]: -0.018 | glycan array binding signal (z-score) (Fuc(a1-2)Gal(b1-3)GlcNAc): -0.44 | glycan array binding signal (z-score) [6]: -0.558 | glycan array binding signal (z-score) [7]: 0.162 | glycan array binding signal (z-score) [8]: 0.011 | glycan array binding signal (z-score) [9]: -0.349 | glycan array binding signal (z-score) [10]: -0.132 | glycan array binding signal (z-score) [11]: -0.506 | glycan array binding signal (z-score) [12]: -0.174 | glycan array binding signal (z-score) [13]: 0.067 | glycan array binding signal (z-score) [14]: -0.101 | glycan array binding signal (z-score) [15]: 0.066 | glycan array binding signal (z-score) [16]: 0.042 | glycan array binding signal (z-score) [17]: -0.482 | glycan array binding signal (z-score) [18]: -0.459 | glycan array binding signal (z-score) (Fuc(a1-2)Gal(b1-4)Glc): 0.537 | glycan array binding signal (z-score) (Fuc(a1-2)Gal(b1-4)Glc6S): 0.036 | glycan array binding signal (z-score) (Fuc(a1-2)Gal(b1-4)GlcNAc): -0.311 | glycan array binding signal (z-score) [19]: 0.123 | glycan array binding signal (z-score) [20]: -0.331 | glycan array binding signal (z-score) [21]: -0.327 | glycan array binding signal (z-score) [22]: 0.435 | glycan array binding signal (z-score) [23]: 0.149 | glycan array binding signal (z-score) [24]: -0.006 | glycan array binding signal (z-score) [25]: -0.372 | glycan array binding signal (z-score) [26]: -0.572 | glycan array binding signal (z-score) [27]: -0.753 | glycan array binding signal (z-score) [28]: 0.038 | glycan array binding signal (z-score) [29]: -0.5 | glycan array binding signal (z-score) [30]: -0.775 | glycan array binding signal (z-score) [31]: -0.236
